# The supplement of paper PMC8728848
# This is one part of the list.
# B1: Epa3 (Candida glabrata), Q6VBI8_CANGB (protein)
# chain: MGSSHHHHHHSSGLVPRGSHMNDLGFSLFEKRELSSQNPFGYPIGCSPQDVAIIPGLTMELYSYPIVSGTPPNCYDASYVDPEYPRTGYLKRKMVGKSTGVTGNLNYKYSVEKACMVKYGNLPAGYNYNEPLTVSNFTMILYGYFKAQTTGLHTFFVNADDLLYINFGAGNAFDCCKREDSKTKLGEYVAYDIWHVDSSKNKVSLFLEKDLYYPIRMFFNNIGKDSSLDLSFSVNGATDQISDFSGYLYSVPDQPDTCPAHIGYDTTCR
# Tests used:
# Assay in all cases: glycan array binding signal (z-score within array); higher = stronger binding
# Settings in all cases: glycan notation: IUPAC condensed, linker removed
# Fuc(a1-2)Gal = target: Fuc(a1-2)Gal
# Summary of the method: (§1)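 The binding signal is a Z-score computed within each array. Data were drawn from 3228 arrays in the Consortium for Functional Glycomics database, restricted to those with a known protein sequence. Scores were averaged over arrays of the same protein sequence at different concentrations or buffers, and over linkers, and negative values can be taken as non-binding.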
# Fuc(a1-2)Gal(b1-3)GalNAc = target: Fuc(a1-2)Gal(b1-3)GalNAc
# Summary of the method: as §1
# [1] = target: Fuc(a1-2)Gal(b1-3)GalNAc(a1-3)[Fuc(a1-2)]Gal(b1-4)Glc
# Summary of the method: as §1
# [2] = target: Fuc(a1-2)Gal(b1-3)GalNAc(a1-3)[Fuc(a1-2)]Gal(b1-4)GlcNAc
# Summary of the method: as §1
# [3] = target: Fuc(a1-2)Gal(b1-3)GalNAc(b1-3)Gal
# Summary of the method: as §1
# [4] = target: Fuc(a1-2)Gal(b1-3)GalNAc(b1-3)Gal(a1-4)Gal(b1-4)Glc
# Summary of the method: as §1
# [5] = target: Fuc(a1-2)Gal(b1-3)GalNAc(b1-4)[Neu5Ac(a2-3)]Gal(b1-4)Glc
# Summary of the method: as §1
# Fuc(a1-2)Gal(b1-3)GlcNAc = target: Fuc(a1-2)Gal(b1-3)GlcNAc
# Summary of the method: as §1
# [6] = target: Fuc(a1-2)Gal(b1-3)GlcNAc(b1-2)Man(a1-3)[Fuc(a1-2)Gal(b1-3)GlcNAc(b1-2)Man(a1-6)]Man(b1-4)GlcNAc(b1-4)GlcNAc
# Summary of the method: as §1
# [7] = target: Fuc(a1-2)Gal(b1-3)GlcNAc(b1-2)Man(a1-3)[Fuc(a1-2)Gal(b1-3)GlcNAc(b1-2)Man(a1-6)]Man(b1-4)GlcNAc(b1-4)[Fuc(a1-6)]GlcNAc
# Summary of the method: as §1
# [8] = target: Fuc(a1-2)Gal(b1-3)GlcNAc(b1-3)Gal(b1-4)Glc
# Summary of the method: as §1
# [9] = target: Fuc(a1-2)Gal(b1-3)GlcNAc(b1-3)GalNAc
# Summary of the method: as §1
# [10] = target: Fuc(a1-2)Gal(b1-3)GlcNAc(b1-3)[Fuc(a1-2)Gal(b1-3)GlcNAc(b1-6)]GalNAc
# Summary of the method: as §1
# [11] = target: Fuc(a1-2)Gal(b1-3)GlcNAc(b1-3)[Gal(b1-4)GlcNAc(b1-6)]Gal(b1-4)Glc
# Summary of the method: as §1
# [12] = target: Fuc(a1-2)Gal(b1-3)GlcNAc(b1-3)[Neu5Ac(a2-6)Gal(b1-4)GlcNAc(b1-6)]Gal(b1-4)Glc
# Summary of the method: as §1
# [13] = target: Fuc(a1-2)Gal(b1-3)GlcNAc6S
# Summary of the method: as §1
# [14] = target: Fuc(a1-2)Gal(b1-3)[Fuc(a1-4)]GlcNAc
# Summary of the method: as §1
# [15] = target: Fuc(a1-2)Gal(b1-3)[Fuc(a1-4)]GlcNAc(b1-2)Man(a1-3)[Fuc(a1-2)Gal(b1-3)[Fuc(a1-4)]GlcNAc(b1-2)Man(a1-3)]Man(b1-4)GlcNAc(b1-4)GlcNAc
# Summary of the method: as §1
# [16] = target: Fuc(a1-2)Gal(b1-3)[Fuc(a1-4)]GlcNAc(b1-2)Man(a1-3)[Fuc(a1-2)Gal(b1-3)[Fuc(a1-4)]GlcNAc(b1-2)Man(a1-6)]Man(b1-4)GlcNAc(b1-4)[Fuc(a1-6)]GlcNAc(b1-4)[Fuc(a1-6)]GlcNAc
# Summary of the method: as §1
# [17] = target: Fuc(a1-2)Gal(b1-3)[Fuc(a1-4)]GlcNAc(b1-3)[Fuc(a1-3)[Gal(b1-4)]GlcNAc(b1-6)]Gal(b1-4)Glc
# Summary of the method: as §1
# [18] = target: Fuc(a1-2)Gal(b1-3)[Fuc(a1-4)]GlcNAc(b1-3)[Gal(b1-4)GlcNAc(b1-6)]Gal(b1-4)Glc
# Summary of the method: as §1
# [19] = target: Fuc(a1-2)Gal(b1-4)Fuc(a1-3)]GlcNAc(b1-2)Man(a1-3)[Fuc(a1-2)Gal(b1-4)[Fuc(a1-3)]GlcNAc(b1-2)Man(a1-6)]Man(b1-4)GlcNAc(b1-4)GlcNAc
# Summary of the method: as §1
# Fuc(a1-2)Gal(b1-4)Glc = target: Fuc(a1-2)Gal(b1-4)Glc
# Summary of the method: as §1
# Fuc(a1-2)Gal(b1-4)Glc6S = target: Fuc(a1-2)Gal(b1-4)Glc6S
# Summary of the method: as §1
# Fuc(a1-2)Gal(b1-4)GlcNAc = target: Fuc(a1-2)Gal(b1-4)GlcNAc
# Summary of the method: as §1
# [20] = target: Fuc(a1-2)Gal(b1-4)GlcNAc(b1-2)Man
# Summary of the method: as §1
# [21] = target: Fuc(a1-2)Gal(b1-4)GlcNAc(b1-2)Man(a1-3)[Fuc(a1-2)Gal(b1-4)GlcNAc(b1-2)Man(a1-6)]Man(b1-4)GlcNAc(b1-4)GlcNAc
# Summary of the method: as §1
# [22] = target: Fuc(a1-2)Gal(b1-4)GlcNAc(b1-2)Man(a1-3)[Fuc(a1-2)Gal(b1-4)GlcNAc(b1-2)Man(a1-6)]Man(b1-4)GlcNAc(b1-4)[Fuc(a1-6)]GlcNAc
# Summary of the method: as §1
# [23] = target: Fuc(a1-2)Gal(b1-4)GlcNAc(b1-2)[Fuc(a1-2)Gal(b1-4)GlcNAc(b1-4)]Man(a1-3)[Fuc(a1-2)Gal(b1-4)GlcNAc(b1-2)Man(a1-6)]Man(b1-4)GlcNAc(b1-4)GlcNAc
# Summary of the method: as §1
# [24] = target: Fuc(a1-2)Gal(b1-4)GlcNAc(b1-3)Gal(b1-4)GlcNAc
# Summary of the method: as §1
# [25] = target: Fuc(a1-2)Gal(b1-4)GlcNAc(b1-3)Gal(b1-4)GlcNAc(b1-2)Man(a1-3)[Fuc(a1-2)Gal(b1-4)GlcNAc(b1-3)Gal(b1-4)GlcNAc(b1-2)Man(a1-6)]Man(b1-4)GlcNAc(b1-4)GlcNAc
# Summary of the method: as §1
# [26] = target: Fuc(a1-2)Gal(b1-4)GlcNAc(b1-3)Gal(b1-4)GlcNAc(b1-3)Gal(b1-4)GlcNAc
# Summary of the method: as §1
# [27] = target: Fuc(a1-2)Gal(b1-4)GlcNAc(b1-3)GalNAc
# Summary of the method: as §1
# [28] = target: Fuc(a1-2)Gal(b1-4)GlcNAc(b1-3)[Fuc(a1-2)Gal(b1-4)GlcNAc(b1-6)]GalNAc
# Summary of the method: as §1
# [29] = target: Fuc(a1-2)Gal(b1-4)GlcNAc(b1-3)[Fuc(a1-3)[Gal(b1-4)]GlcNAc(b1-6)]Gal(b1-4)Glc
# Summary of the method: as §1
# [30] = target: Fuc(a1-2)Gal(b1-4)GlcNAc(b1-6)GalNAc
# Summary of the method: as §1
# [31] = target: Fuc(a1-2)Gal(b1-4)GlcNAc6S
# Summary of the method: as §1
# [32] = target: Fuc(a1-2)Gal(b1-4)[Fuc(a1-3)]GlcNAc
# Summary of the method: as §1
# [33] = target: Fuc(a1-2)Gal(b1-4)[Fuc(a1-3)]GlcNAc(b1-2)Man(a1-3)[Fuc(a1-2)Gal(b1-4)[Fuc(a1-3)]GlcNAc(b1-2)Man(a1-6)]Man(b1-4)GlcNAc(b1-4)[Fuc(a1-6)]GlcNAc
# Summary of the method: as §1
# [34] = target: Fuc(a1-2)Gal(b1-4)[Fuc(a1-3)]GlcNAc(b1-2)[Fuc(a1-2)Gal(b1-4)[Fuc(a1-3)]GlcNAc(b1-4)]Man(a1-3)[Fuc(a1-2)Gal(b1-4)[Fuc(a1-3)]GlcNAc(b1-2)Man(a1-6)]Man(b1-4)GlcNAc(b1-4)GlcNAc
# Summary of the method: as §1
# [35] = target: Fuc(a1-2)Gal(b1-4)[Fuc(a1-3)]GlcNAc(b1-3)Gal(b1-4)[Fuc(a1-3)]GlcNAc
# Summary of the method: as §1
# [36] = target: Fuc(a1-2)Gal(b1-4)[Fuc(a1-3)]GlcNAc(b1-3)Gal(b1-4)[Fuc(a1-3)]GlcNAc(b1-3)Gal(b1-4)[Fuc(a1-3)]GlcNAc
# Summary of the method: as §1
# [37] = target: Fuc(a1-2)Gal(b1-4)[Fuc(a1-3)]GlcNAc(b1-3)GalNAc
# Summary of the method: as §1
# [38] = target: Fuc(a1-2)Gal(b1-4)[Fuc(a1-3)]GlcNAc(b1-3)[Neu5Ac(a2-6)Gal(b1-4)GlcNAc(b1-6)]Gal(b1-4)Glc
# Summary of the method: as §1
# [39] = target: Fuc(a1-2)Gal3S(b1-4)GlcNAc
# Summary of the method: as §1
binder,measurement,setting,value
B1,glycan array binding signal (z-score),Fuc(a1-2)Gal,0.117
same,glycan array binding signal (z-score),Fuc(a1-2)Gal(b1-3)GalNAc,-0.197
same,glycan array binding signal (z-score),[1],-0.261
same,glycan array binding signal (z-score),[2],-0.14
same,glycan array binding signal (z-score),[3],0.784
same,glycan array binding signal (z-score),[4],-0.154
same,glycan array binding signal (z-score),[5],0.041
same,glycan array binding signal (z-score),Fuc(a1-2)Gal(b1-3)GlcNAc,-0.243
same,glycan array binding signal (z-score),[6],-0.227
same,glycan array binding signal (z-score),[7],-0.023
same,glycan array binding signal (z-score),[8],-0.221
same,glycan array binding signal (z-score),[9],-0.264
same,glycan array binding signal (z-score),[10],0.177
same,glycan array binding signal (z-score),[11],-0.113
same,glycan array binding signal (z-score),[12],-0.234
same,glycan array binding signal (z-score),[13],0.035
same,glycan array binding signal (z-score),[14],-0.21
same,glycan array binding signal (z-score),[15],0.103
same,glycan array binding signal (z-score),[16],0.116
same,glycan array binding signal (z-score),[17],-0.328
same,glycan array binding signal (z-score),[18],-0.171
same,glycan array binding signal (z-score),[19],0.257
same,glycan array binding signal (z-score),Fuc(a1-2)Gal(b1-4)Glc,-0.259
same,glycan array binding signal (z-score),Fuc(a1-2)Gal(b1-4)Glc6S,-0.034
same,glycan array binding signal (z-score),Fuc(a1-2)Gal(b1-4)GlcNAc,-0.3
same,glycan array binding signal (z-score),[20],-0.258
same,glycan array binding signal (z-score),[21],-0.328
same,glycan array binding signal (z-score),[22],-0.216
same,glycan array binding signal (z-score),[23],-0.2
same,glycan array binding signal (z-score),[24],-0.314
same,glycan array binding signal (z-score),[25],0.01
same,glycan array binding signal (z-score),[26],-0.268
same,glycan array binding signal (z-score),[27],0.172
same,glycan array binding signal (z-score),[28],-0.133
same,glycan array binding signal (z-score),[29],-0.289
same,glycan array binding signal (z-score),[30],0.068
same,glycan array binding signal (z-score),[31],-0.21
same,glycan array binding signal (z-score),[32],-0.32
same,glycan array binding signal (z-score),[33],0.042
same,glycan array binding signal (z-score),[34],0.047
same,glycan array binding signal (z-score),[35],-0.018
same,glycan array binding signal (z-score),[36],0.299
same,glycan array binding signal (z-score),[37],0.718
same,glycan array binding signal (z-score),[38],-0.262
same,glycan array binding signal (z-score),[39],-0.154
